# Assay results as given in PubChem BioAssay.
# “And” between values parts separate entries of the source, which are not always exact repeats. Identical values can stand only once. Some of the results follow. Where no call is shown, the source marks the result inconclusive.
# Experiment: PubChem AID 1587
# Conditions: rat spinal cord organotypic slices, stronger effect = higher value
row,SMILES,normalized EAAT2 expression
1,Nc1ccc(C(=O)NCC(=O)O)cc1,0.36
2,CC/C(=C(/CC)c1ccc(O)cc1)c1ccc(O)cc1,-0.29
3,CC[N+](C)(C)c1cccc(O)c1,-0.35
4,CN1CCN(C(c2ccccc2)c2ccc(Cl)cc2)CC1 (centres undefined),-0.56
5,CC(=O)CC(c1ccccc1)c1c(O)c2ccccc2oc1=O (centres undefined),1.96
6,C1CCC(C(CC2CCCCN2)C2CCCCC2)CC1 (centres undefined),0.51
7,CCC(=O)O[C@@H](O[P@](=O)(CCCCc1ccccc1)CC(=O)N1C[C@H](C2CCCCC2)C[C@H]1C(=O)O)C(C)C,0.03
8,CC(C)NCC(O)c1ccc2ccccc2c1 (centres undefined),0.59
9,Fc1ccc(C(c2ccccc2)(c2ccccc2F)n2ccnc2)cc1 (centres undefined),0.96 and -0.91
10,CC1=NN(c2ccccc2)C(=O)C1,0.14
11,O=C(O)CN(CC(=O)O)Cc1cc2c(-c3ccccc3C(=O)O)c3cc(CN(CC(=O)O)CC(=O)O)c(=O)cc-3oc2cc1O,1.39
12,CC(C)(Oc1ccc(CCNC(=O)c2ccc(Cl)cc2)cc1)C(=O)O,0.11
13,Cc1cc(CC(=O)O)n(C)c1C(=O)c1ccc(Cl)cc1,-0.14
14,O=C1NS(=O)(=O)c2ccccc21,-0.04
15,CC(C(=O)O)c1ccc(-c2ccccc2)c(F)c1 (centres undefined),3.85
16,Cc1ccc(S(=O)(=O)NC(=O)NN2CCCCCC2)cc1,-0.59
17,C[C@@H]1O[C@@H](OC[C@H]2O[C@@H](Oc3c(-c4ccc(O)c(O)c4)oc4cc(O)cc(O)c4c3=O)[C@H](O)[C@@H](O)[C@@H]2O)[C@H](O)[C@H](O)[C@H]1O,-0.5
18,Cc1cc(O)cc(C)c1Cl,0.53
19,NC(=NCCCCCCN=C(N)/N=C(\N)Nc1ccc(Cl)cc1)/N=C(\N)Nc1ccc(Cl)cc1,0.13
20,CCCCOc1ccc(C(=O)CCN2CCCCC2)cc1,0.04

row,SMILES,normalized EAAT2 expression
1,NC(=O)c1cc[n+](CC2=C(C(=O)O)N3C(=O)C(NC(=O)C(c4ccccc4)S(=O)(=O)[O-])C3SC2)cc1 (centres undefined),-0.6
2,CCN(CC)CCOC(=O)C1(C2CCCCC2)CCCCC1,0.55
3,CN/C(=C\[N+](=O)[O-])NCCSCc1ccc(CN(C)C)o1,-0.33
4,CC(=O)N(O)CCCCCNC(=O)CCC(=O)N(O)CCCCCNC(=O)CCC(=O)N(O)CCCCCN,2.47
5,CC(=O)[C@H]1CCC2C3C[C@H](C)C4=CC(=O)CC[C@]4(C)C3[C@@H](O)C[C@@]21C (some centres undefined),-0.04
6,CC[C@H]1OC(=O)[C@H](C)[C@@H](O[C@H]2C[C@@](C)(OC)[C@@H](O)[C@H](C)O2)[C@H](C)[C@@H](O[C@@H]2O[C@H](C)C[C@H](N(C)C)[C@H]2O)[C@](C)(O)C[C@@H](C)/C(=N\OCOCCOC)[C@H](C)[C@@H](O)[C@]1(C)O,0.34
7,CN(C)CCCN1c2ccccc2CCc2ccccc21,-1.15
8,Cc1c(NC(=O)c2cccnc2)c(=O)n(-c2ccccc2)n1C,0.63
9,CCCOc1ccccc1-c1nc2n[nH]nc2c(=O)[nH]1,1.21
10,O=C(O)c1cc(=O)c2c(OCC(O)COc3cccc4oc(C(=O)O)cc(=O)c34)cccc2o1,-1.66
11,Nc1ncnc2c1ncn2[C@@H]1O[C@H](CO)[C@@H](O)[C@@H]1O,4.51
12,Clc1ccccc1C(c1ccccc1)(c1ccccc1)n1ccnc1,-1.02
13,CCn1cc(C(=O)O)c(=O)c2cnc(N3CCNCC3)nc21,-0.9
14,COc1cc(OC)c2ccc(=O)oc2c1,0.25
15,COc1cc(NS(=O)(=O)c2ccc(N)cc2)nc(OC)n1,1.65
16,CN(C)CCCN1c2ccccc2Sc2ccccc21,0.59
17,NC(=O)N1c2ccccc2C=Cc2ccccc21,0.41
18,CC(=O)NC1SCCC1=O (centres undefined),3.34
19,CO[C@H]1C[C@H](O[C@H]2[C@H](C)[C@@H](OC3O[C@H](C)C[C@H](N(C)C)[C@H]3O)[C@@H](C)C[C@]3(CO3)C(=O)[C@H](C)[C@@H](O)[C@@H](C)[C@@H](C)OC(=O)[C@@H]2C)O[C@@H](C)[C@@H]1O (some centres undefined),0.81
